Measurements from paper PMC12136788.
Some of the results follow.

B1: chr16:57472207:57472321:-|3pUTR|ENSG00000125170|unk|FALSE|unique (ssRNA)
RNA: GGGAGUUCUACAGUCCGACGAUCUCAAACUUUUGGUUGUGUGGGGUUUUUUGUUGUUUUUUGGGUUUUGUUUUUUAAUACUUUAGGGUCCUGAUUUGUGGGAACAGACCUUCUUGUAAAUAACCACUAUUUGAGUUGUGGCAGCAACAGAGGAUUGAGCAUCA
B2: chr2:205796339:205796442:+|3pUTR|ENSG00000118257|msi1|FALSE|unique (ssRNA)
RNA: GGGAGUUCUACAGUCCGACGAUCAAGUCCGCAAGUACUGUGGACAAGAAUGCUUAACCAUGCUGCUUCAGCCUUGAGAGACCUAGGUUCUUACACAUAUGCACACACGCAUACACACAUGCACGCACACACACAUACACACAUCAACAGAGGAUUGAGCAUCA
B3: chr10:95311796:95311897:-|3pUTR|ENSG00000095637|unk|total|mutant (ssRNA)
RNA: GGGAGUUCUACAGUCCGACGAUCCAGACACCGAUUUUUCUGUUCAUUUAUUUUUCUUCAUUGCAGUGGAUUGAUUUGAUAAACCGAUGUGUUGAAUUACUACAUUUGCUGUACAUAUUAUUUAAUAAACUUUAUUCAGAAUUGCAACAGAGGAUUGAGCAUCA
B4: chr11:2944997:2945113:-|3pUTR|ENSG00000205531|unk|total|mutant (ssRNA)
RNA: GGGAGUUCUACAGUCCGACGAUCCUGUGCCGAGCCGGGCCCUGUUCUCCUCCGGAUGUUGCUUCUUGAUUUUUUUUUUUUUUCCGGGGUGGGUCAGGGUUGUGACACACCAGCCCAGGUGAGAGCUGCUGCGGGUCACCUCAUCAACAGAGGAUUGAGCAUCA
B5: chr9:26904889:26904990:-|3pUTR|ENSG00000137055|msi1|FALSE|bound_elsewhere (ssRNA)
RNA: GGGAGUUCUACAGUCCGACGAUCAUAAUUUCUUGAUUUGUCAUUUAUAAAUCCUAAAGUAUAUUUGUUUAAUGGCCUAUUUUUAGAUGAAGAAAAAGCCAGUUGGUAAGCUGUGUUAGUCAUGUAUCAGUUCAGACAGACGAGCAACAGAGGAUUGAGCAUCA
B6: chr2:46903092:46903222:-|3pUTR|ENSG00000180398|msi1|total|mutant (ssRNA)
RNA: GGGAGUUCUACAGUCCGACGAUCAAGCAGAAACCCCUGAUAAACUGAUCAGAUCUCAUGAGACUUAUUCACUGUCACGAGAACCGCACGGGAAAGACUGGCCCCCAUGAUUCAAUUACCUCCCCCUGGGUCUGUCCCACAACACAACAGAGGAUUGAGCAUCA
B7: chr6:35118271:35118501:-|CDS|ENSG00000124678|control|control|control (ssRNA)
RNA: GGGAGUUCUACAGUCCGACGAUCUCAGCGGAUCCAUUUGUUUCUCAAAUGCUGUUUGGUUCUUGGUGUGCAGCGGUCUCUAUUAGACCUUCCUGGAGGCCUUACUCUCAUUGAAGCAGAACUGGCAGAACUGGGCCAAAAGUUCAACAGAGGAUUGAGCAUCA
B8: chr6:121448137:121448244:+|3pUTR|ENSG00000152661|msi1|total|mutant (ssRNA)
RNA: GGGAGUUCUACAGUCCGACGAUCAUGAGGCUCCGAAAACACAAAGACAUCCGAAUACCCCGGUUCACUGGGGGUGUAUGGGGCCGAUGGGUGGAGAGGGAGGGGAUAAGAGAGGUGCAUGUUGGUAUUUAAAGCCGUGGAUUCCAACAGAGGAUUGAGCAUCA
B9: chr4:125449804:125449905:+|CDS|ENSG00000196159|msi1|total|mutant (ssRNA)
RNA: GGGAGUUCUACAGUCCGACGAUCAAACAGAUCUUAAAAUACCAAAAUGUCACUGGCUUCAGUAAUGUGAAUAUCAACAGGCACCGUUUUACCGUGACAUCUUCAGAUCGAGGUAAACCUUCCUUAAUCCGUGAGACAACAGUUCAACAGAGGAUUGAGCAUCA
B10: ENSG00000124766:be:win_1451|3pUTR|ENSG00000124766|bound_else_gene|NA|bound_elsewhere_windowed (ssRNA)
RNA: GGGAGUUCUACAGUCCGACGAUCCGGGGGGGGUAGGAGAGGAGAAAAAAAAAGUGAAAAAAAGAAACGAAAAGGACAGACGAAGAGUUUAAAGAGAAAAGGGAAAAAAGAAAGAAAAAGUAAGCAGGGCUGGCUUCGCCCGCGCAACAGAGGAUUGAGCAUCA
B11: chr4:56994692:56994796:+|CDS|ENSG00000047315|unk|FALSE|unique (ssRNA)
RNA: GGGAGUUCUACAGUCCGACGAUCAAAAACAGUCAUUAAAGAAGGUGAAGAACAACUUCAGACUCAGCAUCAGAAAACUUUUAUAGGAAAAAUUCCAAUUAUGUUGCGGUCAACUUACUGCCUUUUGAAUGGCUUGACAGAUCGCAACAGAGGAUUGAGCAUCA
B12: ENSG00000084234:stop:overlap|stop_codon|ENSG00000084234|stop_codon|NA|stop_codon (ssRNA)
RNA: GGGAGUUCUACAGUCCGACGAUCAGAUGCAGAACCAUGGCUAUGAGAACCCCACCUACAAAUACCUGGAGCAGAUGCAGAUUUAGGUGGCAGGGAGCGCGGCAGCCCUGGCGGAGGGAUGCAGGUGGGCCGGAAGAUCCCACGCAACAGAGGAUUGAGCAUCA
B13: chr14:55043969:55044070:+|CDS|ENSG00000180008|unk|FALSE|bound_elsewhere (ssRNA)
RNA: GGGAGUUCUACAGUCCGACGAUCUUUUUACUUCGAGACUCAGCACAGGAAGACUAUUUAUUCUCUGUUAGUUUUAGACGCUAUAGUCGUUCUCUUCAUGCUAGAAUUGAACAGUGGAAUCACAACUUUAGCUUUGAUGCACAUCAACAGAGGAUUGAGCAUCA
B14: chr17:35924603:35924772:-|CDS|ENSG00000278023|control|control|control (ssRNA)
RNA: GGGAGUUCUACAGUCCGACGAUCGGAAAAUGAAGAUAGCAUGGUGCCACUUCCGAAGCAAAGCCUGAAGUUCUUCUGUGCUUUAGAAGUGGUGUUGCCAUCCUGUGAUUGCAGGAGUCCUGGCAUUGGCUUGGUGGAGGAGCCCAACAGAGGAUUGAGCAUCA

target: T1, UNK ZnF1-6 (called full-length) (human, UniProt Q9C0B0 30-357); assay: nsRBNS (natural sequence RNA bind-n-seq); RBNS binding buffer (assumed for nsRBNS): 25 mM Tris pH 7.5, 150 mM KCl, 3 mM MgCl2, 0.01% Triton X-100, 500 ug/ml BSA, 20 U/ml SUPERase-In, 4 C; UNK is unkempt and MSI1 is Musashi-1; names of the RNAs are library labels; protein concentration not given here; high values mean tight binding
T1 sequence: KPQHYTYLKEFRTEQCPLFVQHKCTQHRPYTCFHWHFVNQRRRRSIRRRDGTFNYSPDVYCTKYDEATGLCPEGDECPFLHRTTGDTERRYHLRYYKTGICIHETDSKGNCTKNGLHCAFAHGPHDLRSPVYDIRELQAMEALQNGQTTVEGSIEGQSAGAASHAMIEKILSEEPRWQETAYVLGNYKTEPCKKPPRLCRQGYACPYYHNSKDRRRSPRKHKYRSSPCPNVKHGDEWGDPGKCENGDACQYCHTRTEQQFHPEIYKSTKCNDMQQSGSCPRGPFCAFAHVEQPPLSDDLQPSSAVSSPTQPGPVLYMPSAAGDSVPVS

Row | Binder | binding signal
1 | B1 | 0.675 enrichment R
2 | B2 | 0.729 enrichment R
3 | B3 | 1.16 enrichment R
4 | B4 | 1.48 enrichment R
5 | B5 | 0.839 enrichment R
6 | B6 | 0.776 enrichment R
7 | B7 | 0.597 enrichment R
8 | B8 | 1.76 enrichment R
9 | B9 | 0.213 enrichment R
10 | B10 | 1.3 enrichment R
11 | B11 | 0.382 enrichment R
12 | B12 | 1.19 enrichment R
13 | B13 | 1.23 enrichment R
14 | B14 | 1.03 enrichment R
